Laboratory results published in the supplement of paper PMC4604168 (melanoma cell lines).
The list shows a part of the results. Single values are uncertain, as repeats are few or missing.

System: COLO800
Test: cell count relative to DMSO control; melanoma cells; higher = more viable cells
Details: library dose: standard library concentration; 72 h
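Further: cells treated in 1,536-well plates, then fixed and DAPI-stained, with nuclei counted from automated high-throughput microscope images.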

Row | Compound | cell count [%]
1 | O=C(Nc1cc(C(F)(F)F)cc(C(F)(F)F)c1)c1cc(Cl)ccc1O + Cc1ccc(Nc2nccc(N(C)c3ccc4c(C)n(C)nc4c3)n2)cc1S(N)(=O)=O [Pazopanib] (first compound 0.08 µM, partner dose 2 µM) | 90.1
2 | O=C(O)c1ccc2c(c1)nc(Nc1cccc(Cl)c1)c1ccncc12 + O=C(CCCCCCC(=O)Nc1ccccc1)NO [vorinostat] (first compound 2 µM, partner dose 0.4 µM) | 50.1
3 | Cn1nnc2c(C(N)=O)ncn2c1=O [temozolomide] + NC(=O)Nc1cc(-c2cccc(F)c2)sc1C(=O)N[C@H]1CCCNC1 [AZD7762] (first compound 10 µM, partner dose 0.1 µM) | 45.6
4 | O=C(Nc1cc(C(F)(F)F)cc(C(F)(F)F)c1)c1cc(Cl)ccc1O + NC1(c2ccc(-c3nc4ccn5c(=O)[nH]nc5c4cc3-c3ccccc3)cc2)CCC1 [MK2206] (first compound 0.08 µM, partner dose 2 µM) | 71
5 | O=C(O)[C@@H]1[O][Sb](=[O])([O][Sb]2(=[O])[O][C@H]([C@H](O)CO)[C@H](O)[C@H](C(=O)O)[O]2)[O][C@H]([C@H](O)CO)[C@@H]1O (stereo partly specified) [stibogluconate] + Nc1cccc2c1CN(C1CCC(=O)NC1=O)C2=O [lenalidomide] (first compound 10 µM, partner dose 5 µM) | 70.8
6 | O=C(O)[C@@H]1[O][Sb](=[O])([O][Sb]2(=[O])[O][C@H]([C@H](O)CO)[C@H](O)[C@H](C(=O)O)[O]2)[O][C@H]([C@H](O)CO)[C@@H]1O (stereo partly specified) [stibogluconate] + Nc1nc(F)nc2c1ncn2[C@@H]1O[C@H](CO)[C@@H](O)[C@@H]1O [fludarabine] (first compound 10 µM, partner dose 1 µM) | 88.3
7 | O=C(O)c1ccc2c(c1)nc(Nc1cccc(Cl)c1)c1ccncc12 + OCc1c[nH]c2ccccc12 [Indole-3-carbinol] (first compound 2 µM, partner dose 4 µM) | 121
8 | Cn1nnc2c(C(N)=O)ncn2c1=O [temozolomide] + Cn1cncc1[C@@](N)(c1ccc(Cl)cc1)c1ccc2c(c1)c(-c1cccc(Cl)c1)cc(=O)n2C [tipifarnib] (first compound 10 µM, partner dose 0.05 µM) | 122

System: COLO829
Test: as above
Details: library dose: standard library concentration; 72 h

Row | Compound | cell count [%]
9 | O=C(Nc1cc(C(F)(F)F)cc(C(F)(F)F)c1)c1cc(Cl)ccc1O + CS(=O)(=O)c1ccc(C(=O)Nc2ccc(Cl)c(-c3ccccn3)c2)c(Cl)c1 [vismodegib] (first compound 0.08 µM, partner dose 5 µM) | 105
10 | O=C(Nc1cc(C(F)(F)F)cc(C(F)(F)F)c1)c1cc(Cl)ccc1O + CN(C)S(=O)(=O)c1ccc2c(c1)/C(=C/c1cc3c([nH]1)CCCC3)C(=O)N2 [SU6656] (first compound 0.08 µM, partner dose 2 µM) | 86
11 | O=C(O)c1ccc2c(c1)nc(Nc1cccc(Cl)c1)c1ccncc12 + COc1cc2c(Oc3ccc4[nH]c(C)cc4c3F)ncnc2cc1OCCCN1CCCC1 [cediranib] (first compound 2 µM, partner dose 2 µM) | 47.4
12 | O=C(Nc1cc(C(F)(F)F)cc(C(F)(F)F)c1)c1cc(Cl)ccc1O + Cn1nnc2c(C(N)=O)ncn2c1=O [temozolomide] (first compound 0.08 µM, partner dose 10 µM) | 76.6
13 | O=C(O)c1ccc2c(c1)nc(Nc1cccc(Cl)c1)c1ccncc12 + C=C(c1ccc(C(=O)O)cc1)c1cc2c(cc1C)C(C)(C)CCC2(C)C [Bexarotene] (first compound 2 µM, partner dose 10 µM) | 44.5
14 | O=C(Nc1cc(C(F)(F)F)cc(C(F)(F)F)c1)c1cc(Cl)ccc1O + CCCCCCCCCCCC1=C(O)C(=O)C=C(O)C1=O [Embelin] (first compound 0.08 µM, partner dose 6 µM) | 81.1
15 | O=C(Nc1cc(C(F)(F)F)cc(C(F)(F)F)c1)c1cc(Cl)ccc1O + CCCCCCCCCCCCCCCCCCOP(=O)([O-])OC1CC[N+](C)(C)CC1 [Perifosine] (first compound 0.08 µM, partner dose 2 µM) | 97.6
16 | O=C(Nc1cc(C(F)(F)F)cc(C(F)(F)F)c1)c1cc(Cl)ccc1O + C#Cc1cccc(Nc2ncnc3cc(OCCOC)c(OCCOC)cc23)c1 [erlotinib] (first compound 0.08 µM, partner dose 4 µM) | 64.2
17 | Cn1nnc2c(C(N)=O)ncn2c1=O [temozolomide] + OCCn1cc(-c2cnc3nnn(Cc4ccc5ncccc5c4)c3n2)cn1 [PF04217903] (first compound 10 µM, partner dose 5 µM) | 96.4
18 | O=C(O)[C@@H]1[O][Sb](=[O])([O][Sb]2(=[O])[O][C@H]([C@H](O)CO)[C@H](O)[C@H](C(=O)O)[O]2)[O][C@H]([C@H](O)CO)[C@@H]1O (stereo partly specified) [stibogluconate] + Cn1nnc2c(C(N)=O)ncn2c1=O [temozolomide] (first compound 10 µM, partner dose 10 µM) | 68.9
19 | O=C(Nc1cc(C(F)(F)F)cc(C(F)(F)F)c1)c1cc(Cl)ccc1O + COc1ccc(Cl)c(Nc2nc3ccccc3nc2NS(=O)(=O)c2cccc(NC(=O)C(C)(C)N)c2)c1 [XL147] (first compound 0.08 µM, partner dose 4 µM) | 117
20 | O=C(Nc1cc(C(F)(F)F)cc(C(F)(F)F)c1)c1cc(Cl)ccc1O + Cc1cc(Nc2cc(N3CCN(C)CC3)nc(/C=C/c3ccccc3)n2)n[nH]1 [ENMD2076] (first compound 0.08 µM, partner dose 0.2 µM) | 77.5
21 | O=C(O)[C@@H]1[O][Sb](=[O])([O][Sb]2(=[O])[O][C@H]([C@H](O)CO)[C@H](O)[C@H](C(=O)O)[O]2)[O][C@H]([C@H](O)CO)[C@@H]1O (stereo partly specified) [stibogluconate] + COc1cc2c(Oc3ccc4[nH]c(C)cc4c3F)ncnc2cc1OCCCN1CCCC1 [cediranib] (first compound 10 µM, partner dose 2 µM) | 98
22 | O=C(Nc1cc(C(F)(F)F)cc(C(F)(F)F)c1)c1cc(Cl)ccc1O + CO[C@@H]1[C@H](N(C)C(=O)c2ccccc2)C[C@H]2O[C@]1(C)n1c3ccccc3c3c4c(c5c6ccccc6n2c5c31)C(=O)NC4 [Midostaurin] (first compound 0.08 µM, partner dose 0.4 µM) | 54.1
23 | O=C(O)[C@@H]1[O][Sb](=[O])([O][Sb]2(=[O])[O][C@H]([C@H](O)CO)[C@H](O)[C@H](C(=O)O)[O]2)[O][C@H]([C@H](O)CO)[C@@H]1O (stereo partly specified) [stibogluconate] + CN(NC(=O)CC(=O)NN(C)C(=S)c1ccccc1)C(=S)c1ccccc1 [STA4783] (first compound 10 µM, partner dose 0.03 µM) | 46.3
24 | O=C(Nc1cc(C(F)(F)F)cc(C(F)(F)F)c1)c1cc(Cl)ccc1O + OCCn1cc(-c2cnc3nnn(Cc4ccc5ncccc5c4)c3n2)cn1 [PF04217903] (first compound 0.08 µM, partner dose 5 µM) | 104
25 | Cc1cc(N2CCOCC2)cc2[nH]c(-c3c(NC[C@@H](O)c4cccc(Cl)c4)cc[nH]c3=O)nc12 + CN(C)S(=O)(=O)c1ccc2c(c1)/C(=C/c1cc3c([nH]1)CCCC3)C(=O)N2 [SU6656] (first compound 1 µM, partner dose 2 µM) | 61.7
26 | O=C(O)[C@@H]1[O][Sb](=[O])([O][Sb]2(=[O])[O][C@H]([C@H](O)CO)[C@H](O)[C@H](C(=O)O)[O]2)[O][C@H]([C@H](O)CO)[C@@H]1O (stereo partly specified) [stibogluconate] + COc1cc(Nc2ncc(F)c(Nc3ccc4c(n3)NC(=O)C(C)(C)O4)n2)cc(OC)c1OC [Tamatinib] (first compound 10 µM, partner dose 2 µM) | 87.6
27 | O=C(Nc1cc(C(F)(F)F)cc(C(F)(F)F)c1)c1cc(Cl)ccc1O + Cc1ccc(NC(=O)c2cccc(N(C)C)c2)cc1NC(=O)c1ccc(O)cc1 [ZM336372] (first compound 0.08 µM, partner dose 10 µM) | 104
28 | O=C(O)c1ccc2c(c1)nc(Nc1cccc(Cl)c1)c1ccncc12 + Nc1nc(F)nc2c1ncn2[C@@H]1O[C@H](CO)[C@@H](O)[C@@H]1O [fludarabine] (first compound 2 µM, partner dose 1 µM) | 67.7
29 | Cn1nnc2c(C(N)=O)ncn2c1=O [temozolomide] + Cc1cc(N2CCOCC2)cc2[nH]c(-c3c(NC[C@@H](O)c4cccc(Cl)c4)cc[nH]c3=O)nc12 [BMS536924] (first compound 10 µM, partner dose 1 µM) | 117
30 | O=C(O)[C@@H]1[O][Sb](=[O])([O][Sb]2(=[O])[O][C@H]([C@H](O)CO)[C@H](O)[C@H](C(=O)O)[O]2)[O][C@H]([C@H](O)CO)[C@@H]1O (stereo partly specified) [stibogluconate] + NC(=O)Nc1cc(-c2cccc(F)c2)sc1C(=O)N[C@H]1CCCNC1 [AZD7762] (first compound 10 µM, partner dose 0.1 µM) | 68.4
31 | O=C(O)[C@@H]1[O][Sb](=[O])([O][Sb]2(=[O])[O][C@H]([C@H](O)CO)[C@H](O)[C@H](C(=O)O)[O]2)[O][C@H]([C@H](O)CO)[C@@H]1O (stereo partly specified) [stibogluconate] + COc1ccc(Cl)c(Nc2nc3ccccc3nc2NS(=O)(=O)c2cccc(NC(=O)C(C)(C)N)c2)c1 [XL147] (first compound 10 µM, partner dose 4 µM) | 97.7
